In all, about 310,000 compounds went through this assay and about 18,000 (5.8%) were called active. Inconclusive means that the source gave no clear call. Such entries were picked first, then a sample of the others. Calls follow the shape of the dose curve; as a rule, active = well fitted inhibition curve with a large enough effect; inconclusive = small, poorly fitted or top-dose-only effect, or another doubt; inactive = no such curve, though single readings can be large or run the other way. No potency is given beside an inconclusive call; the fits are too rough.
Test: Primary qHTS for delayed death inhibitors of the malarial parasite plastid, 48 hour incubation
Conditions: P. falciparum luciferase growth in erythrocytes; series mostly up to 28.7 µM; activity change, negative = inhibition: at the top concentration
Method in brief: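 Growth was read as firefly luciferase luminescence after a 48 h, 37 C, 5% CO2 exposure of compounds to reporter-bearing P. falciparum cultures (0.1% parasitemia, 2% hematocrit final) in Albumax-supplemented RPMI 1640.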
For `Cc1ccc(C2(C)NC(=O)N(CC(=O)Nc3ccc(Cl)c(S(=O)(=O)N4CCCCC4)c3)C2=O)cc1` (stereo unspecified), the Potency was inconclusive [inhibitor, single point]. For `CCN1CCN(C(c2cc3cccc(C)c3[nH]c2=O)c2nnnn2Cc2ccccc2)CC1` (stereo unspecified), the Potency was inconclusive [inhibitor, partial curve, poor fit]. In the case of `CCn1cc(C(=O)NCC2COc3ccccc3O2)c2cc(OC)c(OC)cc2c1=O` (stereo unspecified), the Potency is reported as inconclusive [inhibitor, full curve, poor fit]. With `O=C(COC(=O)c1cccc(Br)c1)Nc1ccc2[nH]c(=O)[nH]c2c1` the “activity change, negative = inhibition” value was inactive: -0.245%. For `COc1ccc(CNc2nc3c(c(=O)n(Cc4ccc(Cl)cc4)c(=O)n3C)n2C)cc1`, the Potency was active: 2.62 µM. With `Cc1cc(C)c[n+](-c2nc([O-])sc2C=O)c1` the “activity change, negative = inhibition” value was inactive: 33.2%. With `COc1ccccc1CNC(=O)CC(NS(=O)(=O)c1ccc(C)cc1)c1ccco1` (stereo unspecified) the Potency was inconclusive [inhibitor, partial curve]. With `CN(N=Nc1ccc([N+](=O)[O-])cc1)c1ccccc1` the “activity change, negative = inhibition” value was inactive: 90.5%. For `Cc1cc([N+](=O)[O-])cc(C)c1OCC(=O)N/N=C/c1ccc(OC(=O)c2ccccc2)cc1`, the Potency was inconclusive [inhibitor, single point]. With `CC(C)c1nnc(NC(=O)Cc2ccccc2[N+](=O)[O-])s1` the “activity change, negative = inhibition” value was inactive: 46.7%. For `CC(Sc1ccc2c(c1)OCCO2)C(=O)Nc1ncc(Cl)cc1Cl` (stereo unspecified), the “activity change, negative = inhibition” value was inactive: 23.5%. With `Cc1ccc(CC2CC(=O)N(Cc3ccco3)C2=O)cc1` (stereo unspecified) the “activity change, negative = inhibition” value was inactive: -0.31%. In the case of `Cc1ccc(NC(=O)Nc2cccnc2)cc1NC(=O)Nc1cccnc1`, the Potency is reported as active: 9.28 µM. In the case of `Cc1ccc(O)c(-c2cc(C(=O)Nc3ccc(S(=O)(=O)Nc4nc(C)cc(C)n4)cc3)[nH]n2)c1`, the Potency is reported as inconclusive [inhibitor, single point]. For `Nc1ccccc1Nc1cc(-c2cccc(Cl)c2)nn1-c1ccccc1`, the Potency was inconclusive [inhibitor, single point]. With `CCCCN(C)CCNC(=O)c1cc(-c2cccnc2)nc2ccc(S(=O)(=O)N3CCC(C)CC3)cc12` the Potency was inconclusive [inhibitor, full curve]. For `Cc1cc(=O)n2nc(N3CCC(C(=O)Nc4c(F)c(F)c(F)c(F)c4F)CC3)sc2n1`, the “activity change, negative = inhibition” value was inactive: -2.44%. For `c1ccc(-n2nnc3cnccc32)cc1`, the “activity change, negative = inhibition” value was inactive: 26.2%. For `CCOc1ccccc1NC(=O)CN1CCC(NC(=O)c2ccccc2)CC1`, the Potency was inconclusive [inhibitor, single point]. For `CCC(=O)N(CCc1ccccc1)Cc1cc2cc3c(cc2[nH]c1=O)OCO3`, the Potency was inconclusive [inhibitor, single point]. In the case of `Cc1cc(N)n(-c2ccc(S(=O)(=O)N3CCCC3)cc2[N+](=O)[O-])n1`, the Potency is reported as inconclusive [inhibitor, single point]. With `CCCC(=O)Nc1ccc2c(c1)COC2=O` the “activity change, negative = inhibition” value was inactive: 53.5%. With `O=C(Cc1ccccc1[N+](=O)[O-])Nc1ccc2c(c1)OCO2` the “activity change, negative = inhibition” value was inactive: 39.4%. In the case of `O=C1CSC(c2cccnc2)N1Cc1cccnc1` (stereo unspecified), the “activity change, negative = inhibition” value is reported as inactive: 14.4%. With `COc1cccc(N2CCN(C(=O)c3ccc(CSc4nc5ccncc5[nH]4)cc3)CC2)c1` the Potency was inconclusive [inhibitor, single point]. In the case of `CCC1CN(C(=O)N2CCC(C(=O)NCCc3ccc(OC)cc3OC)CC2)c2ccccc2O1` (stereo unspecified), the Potency is reported as inconclusive [inhibitor, partial curve]. With `CCOC(=O)Cc1csc(NC(=O)c2csc3c2CCCC3)n1` the Potency was inconclusive [inhibitor, partial curve, poor fit]. In the case of `CC1(C)Cc2c(sc3c2C(=O)N(c2ccccc2)C2=NCCCN23)CO1`, the Potency is reported as inconclusive [inhibitor, single point]. For `O=C(O)c1cc(-c2ccccc2)n(-c2ccccc2C(=O)O)n1`, the “activity change, negative = inhibition” value was inactive: 5.69%. For `Cc1cc(C)c(/C=C(\C#N)C(N)=S)c(C)c1`, the Potency was inconclusive [inhibitor, single point]. In the case of `CC1=C(C)C(=O)C(CCCCC#CCCCC#CCO)=C(C)C1=O`, the Potency is reported as active: 13.1 µM. For `Cc1ccc(-c2c[n+](Cc3cccc(Cl)c3)c3n2CCC3)cc1`, the Potency was inconclusive [inhibitor, full curve]. With `COc1ccc(Cl)cc1N(C(=O)c1ccco1)C(C(=O)NC1CCCC1)c1cccnc1` (stereo unspecified) the Potency was inconclusive [inhibitor, partial curve, poor fit]. For `Cc1cc(S(=O)(=O)NC2CC(C)(C)NC(C)(C)C2)c(Cl)cc1Cl`, the Potency was inconclusive [inhibitor, full curve, poor fit]. For `Cc1ccccc1NP(=O)(c1ccccc1)c1nc2ccccc2s1` (stereo unspecified), the Potency was inconclusive [inhibitor, full curve, poor fit]. For `COc1ccc(CNC(=O)CCCCCNc2nc(=S)[nH]c3ccccc23)cc1`, the Potency was inconclusive [inhibitor, single point]. For `N#CC(C(=O)Nc1ccc(Cl)c(Cl)c1)=C1Nc2ccccc2N1`, the “activity change, negative = inhibition” value was inactive: 7.34%. With `CCOC(=O)c1cc(-c2ccccc2C)nn1Cc1cc(C)no1` the Potency was inconclusive [inhibitor, single point]. In the case of `Cc1cc(C)c(S(=O)(=O)N2CCN(C(=O)C3CC3)CC2)c(C)c1`, the Potency is reported as inconclusive [inhibitor, single point]. In the case of `CSc1ccc(S(=O)(=O)NC2CCCCCC2)cc1`, the Potency is reported as inconclusive [inhibitor, single point]. With `COc1ccc(OCC(=O)NCCCNC(=O)COc2ccc(OC)cc2)cc1` the Potency was inconclusive [inhibitor, partial curve]. In the case of `NC(=O)C1CCN(C(=O)CCSCc2ccccc2)CC1`, the Potency is reported as inconclusive [inhibitor, full curve, poor fit]. With `COc1cccc(C2=CC(=O)C[C@H](c3ccc4c(c3)OCO4)C2)c1OC` the “activity change, negative = inhibition” value was inactive: 28.4%. With `CN(C)C(=O)C12CCC(C)(C(=O)C1Br)C2(C)C` (stereo unspecified) the “activity change, negative = inhibition” value was inactive: 5.78%. In the case of `CC(=O)c1cccc(NC(=O)CCCCCn2nnc3ccccc3c2=O)c1`, the Potency is reported as active: 6.57 µM. In the case of `CN(CCOc1ccc(Cl)cc1)C(=O)c1ccccc1SCC(=O)N1CCCC1`, the Potency is reported as inconclusive [inhibitor, single point].
% is scaled to controls: 0 for no effect and ±100 for the full control effect; potency is read from the fitted curve at half-maximal effect; tags tell the direction and shape of the fitted curve.
